Measured values published in PubChem BioAssay (Tox21).
Several values for one entry are separate records, joined by “and”; a condition that tells them apart may be missing. Identical values can stand only once. The source holds several records for some structures; these can differ, active in one and inactive in another. Activity calls are given as the source filed them. Unless noted, calls follow the shape of the dose curve; as a rule, active = well fitted curve in the direction sought with a large enough effect in the repeat runs; inconclusive = weak or mixed curves; inactive = no such curve, though single readings can be large; an effect the other way counts as inactive or inconclusive. *1 amine or outer side, *2 acyl side, *3 side chain or, on linkers, in order; H or OH if unused. Where a SMILES comes first, the peptide text is derived from it. Bridges are numbered along the chain shown (N, C = ends). Roman numbers before positions name the chains, in order. [ ]: non-standard residue; d: D form. Actinocin(9to1) = Cc1c2oc3c(C)ccc(C(=O)[*:1])c3nc-2c(C(=O)[*:2])c(N)c1=O; NMeV = CN[C@H](C(=O)O)C(C)C; Sar = CNCC(=O)O

Assays:
[1] = qHTS assay to identify small molecule antagonists of the thyroid receptor (TR) signaling pathway (AID 743065); also: nearly all actives have a fitted effect of over 55% in size
Summary of the method: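 Antagonism measured as loss of luciferase signal in GH3 cells stably carrying a TRE-luciferase reporter, co-treated with compound and T3 (1 nM final) for 23.5 h at 37 C. Viability was read in the same well by CellTiter-Fluor.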

[2] = tested on: thyroid hormone receptor (rat, GH3 cells); test: qHTS assay to identify small molecule agonists of the thyroid receptor (TR) signaling pathway (AID 743066; calls by dose curve; as to activation: % is scaled to controls: 0 for no effect and ±100 for the full control effect); details: GH3.TRE-Luc cells, TR agonist luciferase, 24 h; activation: at 83.9 µM (top of the series) unless noted
[3] = qHTS assay to identify small molecule antagonists of the estrogen receptor alpha (ER-alpha) signaling pathway - cell viability counter screen (AID 743074; calls by dose curve; also: nearly all actives have a fitted effect of over 45% in size)
[4] = molecular target: Estrogen receptor (Homo sapiens) (UniProt P03372); test: qHTS assay to identify small molecule agonists of the estrogen receptor alpha (ER-alpha) signaling pathway (AID 743075; calls by dose curve)
Chain of UniProt P03372 (P03372 whole entry, looked up): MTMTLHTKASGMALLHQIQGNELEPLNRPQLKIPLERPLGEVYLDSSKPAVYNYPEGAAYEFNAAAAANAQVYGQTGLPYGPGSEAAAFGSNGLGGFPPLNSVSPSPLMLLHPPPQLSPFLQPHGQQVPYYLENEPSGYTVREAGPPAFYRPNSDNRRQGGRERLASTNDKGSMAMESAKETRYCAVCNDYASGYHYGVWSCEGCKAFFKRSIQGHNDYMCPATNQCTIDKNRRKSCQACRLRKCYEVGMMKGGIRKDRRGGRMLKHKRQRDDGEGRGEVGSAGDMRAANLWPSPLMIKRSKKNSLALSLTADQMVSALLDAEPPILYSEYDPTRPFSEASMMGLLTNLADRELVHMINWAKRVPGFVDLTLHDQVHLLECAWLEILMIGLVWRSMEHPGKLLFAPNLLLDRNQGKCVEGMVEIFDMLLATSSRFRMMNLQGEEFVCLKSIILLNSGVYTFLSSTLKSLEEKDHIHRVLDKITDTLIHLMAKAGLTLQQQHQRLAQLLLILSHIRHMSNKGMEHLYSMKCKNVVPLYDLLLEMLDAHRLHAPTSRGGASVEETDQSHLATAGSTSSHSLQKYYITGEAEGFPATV

[5] = molecular target: Estrogen receptor (Homo sapiens) (UniProt P03372); test: qHTS assay to identify small molecule agonists of the estrogen receptor alpha (ER-alpha) signaling pathway using the BG1 cell line (AID 743079); details: BG1Luc4E2 cells, ERE-luciferase agonist, 22 h; activation: at 70.3 µM (top of the series) unless noted; also: nearly all actives have a fitted effect of over 20% in size
[6] = qHTS assay to identify small molecule antagonists of the estrogen receptor alpha (ER-alpha) signaling pathway using the BG1 cell line (AID 743080; calls by dose curve;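 also: BG1 cells stimulated with 17beta-estradiol alongside compound; nearly all actives have a fitted effect of over 25% in size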); details: BG1Luc4E2 ERE-luciferase antagonist mode, luminescence; activity change, negative = inhibition: at 70.3 µM (top of the series) unless noted
Summary of the method: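 Seeding, 24 h rest, compound transfer from DMSO, 17beta-estradiol addition, 21.5 h incubation, CellTiter-Fluor (30 min, 37 C), then ONE-Glo (30 min, room temperature): this sequence was run on BG1-Luc-4E2 reporter cells.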

[7] = qHTS assay to identify small molecule antagonists of the estrogen receptor alpha (ER-alpha) signaling pathway using the BG1 cell line - cell viability counter screen (AID 743081); details: BG1Luc4E2 viability, CellTiter-Fluor, 22 h; activity change, negative = cytotoxicity: at 70.3 µM (top of the series);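 also: compound given together with 17beta-estradiol as the ER stimulus; nearly all actives have a fitted effect of over 45% in size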
[8] = molecular target: Estrogen receptor (Homo sapiens) (UniProt P03372); test: qHTS assay to identify small molecule antagonists of the estrogen receptor alpha (ER-alpha) signaling pathway (AID 743069; active = well fitted curve in the direction sought with a large enough effect in the signal ratio in the repeat runs, not every such curve was filed as active; inconclusive = weak or mixed curves, or effect the other way; inactive = no such curve, though single readings can be large or run the other way; the % refers to the signal ratio; as to activity, negative = inhibition: % is scaled to controls: 0 for no effect and ±100 for the full control effect); details: HEK293 ER-alpha-UAS-bla, beta-lactamase ratio, antagonist mode; activity, negative = inhibition: at 69.4 µM (top of the series) unless noted
Summary of the method: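 Fluorescence intensity from a beta-lactamase FRET substrate served as the read-out. Cells: HEK293 with stably integrated ER-alpha-UAS-bla reporter. Agonist 17beta-estradiol was co-added with compounds; incubation 18 hr at 37C, substrate 2 hr at room temperature.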

[9] = qHTS assay to identify aromatase inhibitors - cell viability counter screen (AID 743084); details: MCF-7 aro ERE viability, CellTiter-Fluor, 24 h; activity change, negative = cytotoxicity: at 70.3 µM (top of the series);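 also: cells stimulated with testosterone during compound exposure; nearly all actives have a fitted effect of over 55% in size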
Aromatase (Homo sapiens) = Aromatase (Homo sapiens) (UniProt P11511); test: qHTS assay to identify aromatase inhibitors (AID 743083); also: nearly all actives have a fitted effect of over 55% in size
Chain of UniProt P11511 (P11511 whole entry, looked up): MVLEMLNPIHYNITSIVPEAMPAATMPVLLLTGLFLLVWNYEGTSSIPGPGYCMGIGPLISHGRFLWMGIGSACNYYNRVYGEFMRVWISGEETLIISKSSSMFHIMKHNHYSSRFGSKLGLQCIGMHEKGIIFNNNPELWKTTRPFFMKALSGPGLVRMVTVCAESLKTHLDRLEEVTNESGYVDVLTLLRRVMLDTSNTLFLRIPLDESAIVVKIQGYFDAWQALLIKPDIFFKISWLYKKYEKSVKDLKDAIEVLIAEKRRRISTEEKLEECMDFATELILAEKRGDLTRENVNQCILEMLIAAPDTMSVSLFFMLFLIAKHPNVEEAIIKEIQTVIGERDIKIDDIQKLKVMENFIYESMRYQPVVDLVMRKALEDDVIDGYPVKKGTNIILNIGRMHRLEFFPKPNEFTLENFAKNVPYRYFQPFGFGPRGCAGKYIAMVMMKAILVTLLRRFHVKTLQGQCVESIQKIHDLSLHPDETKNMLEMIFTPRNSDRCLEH
Potency is read from the fitted curve at half-maximal effect; tags tell the direction and shape of the fitted curve or compound fluorescence and quenching.

Row | Compound | Potency [1] | activation [2] | Potency [3] | Potency [4] | Potency [5] | Potency [6] | Potency [7] | Potency [2] | Potency [8] | Potency [9] | Potency (Aromatase (Homo sapiens))
1 | COc1ccc2cc(S(=O)(=O)N[C@H](CC(=O)N[C@H](Cc3ccc(CN4[C@H](C)CCC[C@@H]4C)cc3)C(=O)N(C)C(C)C)c3ccc4c(c3)OCO4)ccc2c1 | active: 3.65 µM | inconclusive: -9.12% [phenotype inactive] | active: 52 µM | inconclusive: 58.4 µM [activator, partial curve, poor fit] | inconclusive: 57.9 µM [inhibitor, partial curve] | inconclusive: 57.9 µM [falling, partial curve] | active: 9.17 µM | – | – | – | –
2 | CCCCCCCCCCCCSC#N | inconclusive: 43.3 µM [inhibitor, partial curve] | – | inactive | – | – | – | – | inactive | – | – | –
3 | C[C@]12CC[C@@H]3c4ccc(O)cc4C[C@@H](CCCCCCCCCS(=O)CCCC(F)(F)C(F)(F)F)[C@H]3[C@@H]1CC[C@@H]2O (stereo partly specified) | active: 4.2 nM and active: 0.7 nM | – | – | – | – | – | – | – | – | – | –
4 | Cc1c2oc3c(C)ccc(C(=O)N[C@@H]4C(=O)N[C@H](C(C)C)C(=O)N5CCC[C@H]5C(=O)N(C)CC(=O)N(C)[C@@H](C(C)C)C(=O)O[C@@H]4C)c3nc-2c(C(=O)N[C@@H]2C(=O)N[C@H](C(C)C)C(=O)N3CCC[C@H]3C(=O)N(C)CC(=O)N(C)[C@@H](C(C)C)C(=O)O[C@@H]2C)c(N)c1=O (I: T[dV]P[Sar][NMeV] / II: T[dV]P[Sar][NMeV]; ester I:1-I:C, II:1-II:C; linker I:N-II:N via Actinocin(9to1)) | inconclusive: 0.0033 µM [inhibitor, full curve, poor fit] | inconclusive: -7.64% [phenotype inactive] | – | – | inconclusive: 26.6 nM [inhibitor, full curve] and inconclusive: 10.6 nM [inhibitor, full curve] | active: 84.1 nM and active: 10.6 nM | active: 15 µM and active: 13.3 µM | – | active: 53.5 nM [inconclusive] and active: 13.4 nM [inconclusive] | inconclusive: 16.8 µM [cytotoxic, partial curve, poor fit] and active: 7.48 µM | –
5 | O=[N+]([O-])c1cc(N(CCO)CCO)ccc1NCCO | inconclusive: 43.2 µM [inhibitor, partial curve] and inconclusive: 68.6 µM [inhibitor, single point] | – | inconclusive: 0.977 µM [rising, full curve, poor fit] | – | – | inconclusive: 43.2 µM [falling, partial curve] and inconclusive: 68.6 µM [falling, partial curve] | active: 48.5 µM and inconclusive: 61.1 µM [cytotoxic, single point] | inactive | inactive and inconclusive: 9.77 µM [fluorescent, full curve] | active: 48.5 µM and active: 61.1 µM | inconclusive: 48.5 µM [inhibitor, partial curve] and inconclusive: 86.3 µM [inhibitor, single point]
6 | Oc1cccc(-c2c3nc(c(-c4cccc(O)c4)c4ccc([nH]4)c(-c4cccc(O)c4)c4nc(c(-c5cccc(O)c5)c5ccc2[nH]5)CC4)C=C3)c1 | active: 8.41 µM and active: 7.5 µM | – | inconclusive: 26.8 µM [cytotoxic, single point] | inconclusive: 10.7 µM [cytotoxic, partial curve] | inconclusive: 26.6 µM [inhibitor, partial curve] and inconclusive: 29.8 µM [inhibitor] | inconclusive: 23.7 µM [falling, partial curve] | active: 9.44 µM and active: 11.9 µM | inconclusive: 7.5 µM [inhibitor, partial curve, poor fit] and inconclusive: 5.96 µM [inhibitor, partial curve, poor fit] | inconclusive: 10.7 µM [cytotoxic, partial curve] | active: 29.8 µM and active: 21.1 µM | active: 26.6 µM
